Experimental data published in patent US20250188179A1 (ADAGENE PTE, published 2025).

B1: TY22599 (antibody, human IgG4 S228P, kappa)
heavy: EVQLVESGGGLVQPGGSLRLSCAASGFSLSTGGVGVGWIRQAPGKGLEWLALIDWADDKYYSPSLKSRLTISRDNSKNTLYLQLNSLRAEDTAVYYCARGGSDTVIGDWFAYWGQGTLVTVSSASTKGPSVFPLAPCSRSTSESTAALGCLVKDYFPEPVTVSWNSGALTSGVHTFPAVLQSSGLYSLSSVVTVPSSSLGTKTYTCNVDHKPSNTKVDKRV[in this place human IgG4 Fc with S228P (EU numbers)]
light: EVGSYTDNYDYCPRLRRKCYHSGRSAGGGGTPLGLAGSGGSDIQLTQSPSSLSASVGDRVTITCRASQSIGSYLAWYQQKPGKAPKLLIYDASNLETGVPSRFSGSGSGTDFTLTISSLQPEDFATYYCQQGYYLWTFGQGTKVEIKRTVAAPSVFIFPPSDEQLKSGTASVVCLLNNFYPREAKVQWKVDNALQSGNSQESVTEQDSKDSTYSLSSTLTLSKADYEKHKVYACEVTHQGLSSPVTKSFNRGEC
notes: Masked, uncleaved; hIgG4
B2: TY25370 (antibody, human IgG1, kappa)
heavy: EVQLVESGGGLVQPGGSLRLSCAASGFSLSTGGVGVGWIRQAPGKGLEWLALIDWADDKYYSPSLKSRLTISRDNSKNTLYLQLNSLRAEDTAVYYCARGGSDTVIGDWFAYWGQGTLVTVSS[in this place human IgG1 constant region with changes]
light: EVGSYNDYNYHCKWRPSRCHNPLGLAGSGGSDIQLTQSPSSLSASVGDRVTITCRASQSIGSYLAWYQQKPGKAPKLLIYDASNLETGVPSRFSGSGSGTDFTLTISSLQPEDFATYYCQQGYYLWTFGQGTKVEIKRTVAAPSVFIFPPSDEQLKSGTASVVCLLNNFYPREAKVQWKVDNALQSGNSQESVTEQDSKDSTYSLSSTLTLSKADYEKHKVYACEVTHQGLSSPVTKSFNRGEC
notes: Masked, uncleaved; hIgG1 S267E/L328F
B3: TY23573 (antibody, human IgG1, kappa)
heavy: EVQLVESGGGLVQPGGSLRLSCAASGFSLSTGGVGVGWIRQAPGKGLEWLALIDWADDKYYSPSLKSRLTISRDNSKNTLYLQLNSLRAEDTAVYYCARGGSDTVIGDWFAYWGQGTLVTVSS[in this place human IgG1 constant region]
light: EVGSYTDNYDYCPRLRRKCYHPLGLAGSGGSDIQLTQSPSSLSASVGDRVTITCRASQSIGSYLAWYQQKPGKAPKLLIYDASNLETGVPSRFSGSGSGTDFTLTISSLQPEDFATYYCQQGYYLWTFGQGTKVEIKRTVAAPSVFIFPPSDEQLKSGTASVVCLLNNFYPREAKVQWKVDNALQSGNSQESVTEQDSKDSTYSLSSTLTLSKADYEKHKVYACEVTHQGLSSPVTKSFNRGEC
notes: Masked, uncleaved; hIgG1
B4: TY25371 (antibody, human IgG1, kappa)
heavy: EVQLVESGGGLVQPGGSLRLSCAASGFSLSTGGVGVGWIRQAPGKGLEWLALIDWADDKYYSPSLKSRLTISRDNSKNTLYLQLNSLRAEDTAVYYCARGGSDTVIGDWFAYWGQGTLVTVSS[in this place human IgG1 constant region with changes]
light: B3 light
notes: as for B2
B5: TY25155 (antibody, human IgG4 S228P, kappa)
heavy: B1 heavy
light: EVGSYPTDLDACADAPNHCHFSGRGPLGLAGGSDIQLTQSPSSLSASVGDRVTITCRASQSIGSYLAWYQQKPGKAPKLLIYDASNLETGVPSRFSGSGSGTDFTLTISSLQPEDFATYYCQQGYYLWTFGQGTKVEIKRTVAAPSVFIFPPSDEQLKSGTASVVCLLNNFYPREAKVQWKVDNALQSGNSQESVTEQDSKDSTYSLSSTLTLSKADYEKHKVYACEVTHQGLSSPVTKSFNRGEC
notes: Masked, uncleaved; hIgG4

What was measured:
[1] = target: T1, full-length human CD137 with C-terminal 3xMyc tag displayed on yeast cells (human, UniProt Q07011 24-255); test: FACS titration on yeast displaying full-length hCD137-3xMyc, no protease; data batch 3
T1 construct: whole, on cells; not used; also called hCD137; not shown: C-terminal 3xMyc tag

[2] = target: T1, full-length human CD137 with C-terminal …; test: FACS titration on yeast displaying full-length hCD137-3xMyc, no protease; data batch 2
[3] = target: T1, full-length human CD137 with C-terminal …; test: FACS titration on yeast displaying full-length hCD137-3xMyc, no protease; data batch 1
[4] = target: T1, full-length human CD137 with C-terminal …; test: KD divided by KD of parental TY21242; FACS on yeast hCD137; data batch 2
[5] = target: T1, full-length human CD137 with C-terminal …; test: KD divided by KD of parental TY21242; FACS on yeast hCD137; data batch 1
[6] = target: T1, full-length human CD137 with C-terminal …; test: KD divided by KD of parental TY21242; FACS on yeast hCD137; data batch 3
[7] = target: T1, full-length human CD137 with C-terminal …; test: KD divided by KD of parental antibody (TY21242 or TY23310); FACS on yeast hCD137; data batch 4
[8] = target: T1, full-length human CD137 with C-terminal …; test: FACS titration on yeast displaying full-length hCD137-3xMyc, no protease; data batch 4

T1 sequence (Q07011 24-255): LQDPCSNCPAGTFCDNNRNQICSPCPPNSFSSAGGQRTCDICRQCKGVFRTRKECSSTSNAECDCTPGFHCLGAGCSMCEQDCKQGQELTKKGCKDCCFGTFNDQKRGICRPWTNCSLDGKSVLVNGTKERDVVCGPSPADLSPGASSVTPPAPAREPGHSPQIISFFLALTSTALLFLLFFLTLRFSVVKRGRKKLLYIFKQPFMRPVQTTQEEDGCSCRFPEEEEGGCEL

Row | Binder | Kd [1] [nM] | Kd [2] [nM] | Kd [3] [nM] | Masking efficiency [4] [fold] | Masking efficiency [5] [fold] | Masking efficiency [6] [fold] | Masking efficiency [7] [fold] | Kd [8]
1 | B1 | 44 | 71.7 | 98.1 | 246 | 348 | 124 | – | –
2 | B2 | – | – | – | – | – | – | 240 | 42.2 nM
3 | B3 | 99.3 | 239 | – | 820 | – | 279 | – | –
4 | B4 | – | – | – | – | – | – | 351 | 61.9 nM
5 | B5 | 402 | – | – | – | – | 1130 | – | 183 nM and 182 nM

Values joined by “and” are separate entries in the source; they are usually repeats but may differ in a detail not shown here. Equal values may be shown once.
